Data: the supplement of paper PMC10502849
The list shows a part of the results. Most values come without repeats; read them as rough.

Assays:
[1] = tested on: H9 teratoma-derived LAM model cells, TSC2-/-; experiment: percent SyTOX+ dead cells; higher = more cytotoxic; conditions: 5 µM, treatment time 72 h, culture: 3D hyaluronic acid hydrogel
[2] = tested on: H9 teratoma-derived LAM model cells, WT; experiment: percent SyTOX+ dead cells; higher = more cytotoxic; conditions: 5 µM, treatment time 72 h, culture: 3D hyaluronic acid hydrogel, genotype: WT
[3] = tested on: H9 teratoma-derived LAM model cells, TSC2-/-; experiment: percent of cells invaded past median invasion distance of vehicle control; LAM is lymphangioleiomyomatosis; the cells come from teratomas of the human stem cell line H9; higher = more invasion; extreme values may be limits of the assay; conditions: 5 µM, treatment time 72 h, culture: 3D hyaluronic acid hydrogel
[4] = tested on: H9 teratoma-derived LAM model cells, WT; experiment: as above; conditions: 5 µM, treatment time 72 h, culture: 3D hyaluronic acid hydrogel, genotype: WT
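Wherever percent SyTOX+ dead cells is given: cells seeded atop a hyaluronic acid gel crosslinked via MMP-cleavable peptides, containing vitronectin peptides and methylcellulose, imaged live by high-content microscopy with automated analysis, one technical replicate per compound.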
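Wherever percent of cells invaded past median invasion distance of vehicle control is given: live cells imaged by high content microscopy and scored with in-house automated image analysis, one technical replicate per compound in each genotype and rapamycin condition.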

| Structure (SMILES) | percent SyTOX+ dead cells ([1]; rapamycin 0 nM) | percent SyTOX+ dead cells ([1]; rapamycin 20 nM) | percent SyTOX+ dead cells ([2]; rapamycin 0 nM) | percent SyTOX+ dead cells ([2]; rapamycin 20 nM) | percent ([3]; rapamycin 0 nM) | percent ([3]; rapamycin 20 nM) | percent ([4]; rapamycin 0 nM) | percent ([4]; rapamycin 20 nM) |
| --- | --- | --- | --- | --- | --- | --- | --- | --- |
| O=C(Nc1c[nH]nc1-c1nc2ccc(CN3CCOCC3)cc2[nH]1)NC1CC1 | 56.1% | 70% | 69.2% | 73.1% | 3.54% | 1.52% | 0% | 0% |
| Cc1nc2sccn2c(=O)c1CCN1CCC(=C(c2ccccc2)c2ccc(F)cc2)CC1 | 3.68% | 10.3% | 7.35% | 11.8% | 17.1% | 11.6% | 38.4% | 22.3% |
| O=C(/C=C/c1ccc(O)c(O)c1)OCCc1ccccc1 [Caffeic acid phenethyl ester, CAPE] | 14.7% | 8.21% | 15.2% | 17.7% | 5.08% | 3.59% | 9.09% | 12.1% |
| O=C(CO)N1CCC(c2n[nH]c(-c3ccc(Cl)cc3)c2-c2ccncn2)CC1 | 5.38% | 4.56% | 10.9% | 5.01% | 24.4% | 24.5% | 17.7% | 34.3% |
| Cc1cc2c(s1)c1cnn(Cc3ccccc3F)c(=O)c1n2C | 5.13% | 16% | 6.08% | 11.4% | 63% | 31.5% | 12.5% | 33.5% |
| Nc1nc(Nc2ccc(S(N)(=O)=O)cc2)nn1C(=O)c1c(F)cccc1F | 12.4% | 13.3% | 10.9% | 17.4% | 7.59% | 17.1% | 0.91% | 11.8% |
| CN(C)/N=N/c1[nH]cnc1C(N)=O | 16.7% | 14.4% | 16.4% | 14.1% | 33.6% | 37.1% | 54.5% | 43.8% |
| OCCC#Cc1nc(-c2ccc(F)cc2)c(-c2ccncc2)n1CCCc1ccccc1 | 10.5% | 7.77% | 10.4% | 11.4% | 22.1% | 13.4% | 21.7% | 18.5% |
| Cc1cc(F)c(Nc2ncnc3cc(OCc4ccccc4)ccc23)cc1O | 21.1% | 10.4% | 11.6% | 12.8% | 14.7% | 22.3% | 27.4% | 17.9% |
| CO[C@H]1C[C@@H]2CC[C@@H](C)[C@@](O)(O2)C(=O)C(=O)N2CCCC[C@H]2C(=O)O[C@H]([C@H](C)C[C@@H]2CC[C@@H](OCCO)[C@H](OC)C2)CC(=O)[C@H](C)/C=C(\C)[C@@H](O)[C@@H](OC)C(=O)[C@H](C)C[C@H](C)/C=C/C=C/C=C/1C [Everolimus, RAD-001, Certican] | 5.36% | 4.5% | 10.3% | 8.38% | 40.2% | 45% | 49.6% | 52.4% |
| Cc1cc(C(=O)NOCCO)c(Nc2ccc(I)cc2F)n(C)c1=O | 27.2% | 19.5% | 34.9% | 32% | 49.3% | 75.1% | 46.6% | 29.2% |
